Values joined by “and” are separate entries in the source; they are usually repeats but may differ in a detail not shown here. Identical values can stand only once. The whole screen tested about 420,000 compounds, of which about 50,000 (12%) were called active. Inconclusive means that the source gave no clear call. Such entries were picked first, then a sample of the others. Calls follow the shape of the dose curve; as a rule, active = well fitted inhibition curve with a large enough effect; inconclusive = small, poorly fitted or top-dose-only effect; inactive = flat fitted curve, though single readings scatter. Potencies of inconclusive entries are doubtful fits and often do not repeat.
experiment: qHTS for Inhibitors of human tyrosyl-DNA phosphodiesterase 1 (TDP1): qHTS in cells in presence of CPT; conditions: chicken DT40 Tdp1-/-;hTDP1 cells + 20 nM CPT, ATP luminescence, 48 h; activity change, negative = growth inhibition: at 46.2 µM (top of the series) unless noted; also: nearly all actives have a fitted effect of over 55% in size
Summary of the method: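 Chicken DT40 Tdp1-/- cells stably complemented with human TDP1 were seeded at 400 cells/well in medium containing 20 nM camptothecin, exposed to pin-transferred compounds, and grown at 37 °C for at least 48 hr. Viability was read as ATP luminescence.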
% is scaled to controls: 0 for no effect and ±100 for the full control effect; potency is read from the fitted curve at half-maximal effect; tags tell the direction and shape of the fitted curve.

| Compound | Potency | activity change, negative = growth inhibition |
| --- | --- | --- |
| CC(C)CN1CCC(Oc2cccc(C(=O)NCCc3ccccc3)c2)CC1 | inactive |  |
| O=C(NC1CCCCC1)C(c1ccc2ncccc2c1)N(Cc1ccco1)C(=O)c1ccc2c(c1)OCCO2 (configuration not stated) | inconclusive: 29.1 µM [inhibitor, single point] |  |
| CCCCc1nc2ccccc2c(N)c1CCC (tested in a mixture with another compound) | inconclusive: 16.4 µM [inhibitor, single point] |  |
| C[C@@H]1C(NC(=O)c2ccccc2)CC2CC1C2(C)C (some centres not stated) | inconclusive: 11.6 µM [inhibitor, single point] |  |
| O=S(=O)(NCC(c1ccco1)N1CCN(c2ccccc2)CC1)c1cc(F)ccc1F (configuration not stated) | inconclusive: 29.1 µM [inhibitor, single point] |  |
| CCOC(=O)CCC(=O)O[C@H]1C(O[C@@H]2C(C)[C@H](O[C@H]3C[C@@](C)(OC)C(O)C(C)O3)C(C)C(=O)OC(CC)[C@@](C)(O)C(O)[C@H](C)C(=O)C(C)C[C@]2(C)O)OC(C)CC1N(C)C (some centres not stated) | inactive |  |
| CCc1ccc2oc(-c3ccc(C)c(NC(=O)Cc4ccccc4)c3)nc2c1 | inactive |  |
| COc1cccc(C(=O)NCC2CCCN(C(=O)Cc3cccc(C)c3)C2)c1OC (configuration not stated) | inconclusive: 29.1 µM [inhibitor, single point] |  |
| CCN(CC)CCn1c(=N)n(CC(=O)c2ccc(Br)s2)c2ccccc21 | active: 5.8 µM |  |
| CCOC(=O)c1cc(S(=O)(=O)Nc2ccc(OC)cc2OC)cn1C | inactive |  |
| CNC(=O)c1ccccc1NC(=O)c1ccc(C)c(S(=O)(=O)N2CCCCC2)c1 | inconclusive: 18.4 µM [inhibitor, single point] |  |
| Cc1cc(C)c2c(CN3CCN(c4ccccc4)CC3)cc(=O)oc2c1 | inconclusive: 29.1 µM [inhibitor, single point] |  |
| C[C@@H]1CN([C@@H](C)CO)C(=O)c2cc(Br)cnc2O[C@H]1CN(C)C(=O)CCN1CCCCC1 | inactive |  |
| O=C(N/N=C/c1ccncc1)c1ccccn1 | inactive |  |
| N#Cc1c(N2CCN(C(=O)c3ccco3)CC2)nc(-c2ccccc2)c2c1CCCC2 | active: 25.9 µM |  |
| COc1ccc(CCNC(=O)c2ccc3nc(N4CCCCC4)sc3c2)cc1OC | active: 18.4 µM |  |
| O=[N+]([O-])c1ccc(/C=N\NS(=O)(=O)c2ccc(F)cc2)o1 | active: 14.6 µM |  |
| c1ccc(C[C@H]2CNCCN2CC2(c3ccccc3)CC2)cc1 | inconclusive: 20.6 µM [inhibitor, single point] |  |
| COc1ccc(C2=NS(=O)(=O)N(C)C(C(=O)N3CCc4ccccc4C3)=C2)cc1OC | active: 18.4 µM |  |
| CNC(=O)c1cc(S(=O)(=O)NC2CCCCCC2)ccc1C |  | inconclusive: -31.5% [inhibitor] |
| CC(C)(C)c1nn(-c2ccccc2)c2[nH]c(=O)c(CNCc3ccco3)cc12 | active: 20.6 µM |  |
| O=C(COC(=O)c1ccco1)c1ccc(Cl)cc1 | inactive |  |
| O=C(NN1CCOCC1)c1ccc(Cl)c(Cl)c1 | inactive |  |
| CCOC(=O)C1=CCN(S(=O)(=O)c2ccccc2C)C1c1cccc(F)c1 (configuration not stated) | inconclusive: 29.1 µM [inhibitor, single point] |  |

| Compound | Potency | activity change, negative = growth inhibition |
| --- | --- | --- |
| O=C(CCC1CCCN(C(=O)Cc2cccc(F)c2)C1)N1CCN(c2ccccn2)CC1 (configuration not stated) | inactive |  |
| c1ccc(COc2ncnc3c2ncn3CCCNCc2ccc3c(c2)OCO3)cc1 | inconclusive: 29.1 µM [inhibitor, single point] |  |
| CC(OC(=O)CC1CCCCC1)C(=O)Nc1cccc(C#N)c1 (configuration not stated) | inconclusive: 23.1 µM [inhibitor, single point] |  |
| COc1ccc2[nH]cc(CCNc3ncncc3-c3ccccc3C)c2c1 | inconclusive: 20.6 µM [inhibitor, single point] |  |
| Cc1ccc(C(=O)c2nc(C(=O)NCCO)nc3ccccc23)cc1 | inconclusive: 29.1 µM [inhibitor, single point] |  |
| O=C(Nc1cccc(Cl)c1)OCCOC(=O)Nc1cccc(Cl)c1 | inconclusive: 29.1 µM [inhibitor, single point] |  |
| Cc1ccc(-c2cccc(NC(=O)C3C4C=CC(C4)C3C(=O)O)c2)o1 (configuration not stated) | inconclusive: 29.1 µM [inhibitor, single point] |  |
| CC(C)(C)OC(=O)N1CCC(c2c(C(=O)NCCN3CCOCC3)cnn2-c2cccc(Cl)c2)CC1 | inconclusive: 18.4 µM [inhibitor, single point] |  |
| O=C(Nc1cccc(O)c1)c1ccc(C(=O)c2ccccc2)o1 | inconclusive: 23.1 µM [inhibitor, single point] |  |
| O=C(c1ccc(OC2CCN(CCc3ccccc3)CC2)cc1)N1CCC[C@H]1CO | inactive |  |
| CCc1ccc(-c2nc(SCC(=O)NC3CCCC3)n[nH]2)cc1 | active: 25.9 µM |  |
| Cc1sc2ncnc(N3CCC(C(=O)NNC(=O)COc4ccc(Br)cc4)CC3)c2c1C | inconclusive: 29.1 µM [inhibitor, single point] |  |
| CC(C)CCOc1ccc(Cl)cc1CN1CCOCC1 | inconclusive: 29.1 µM [inhibitor, single point] |  |
| COc1ccccc1N(Cc1cc(=O)[nH]c2ccccc12)C(=O)c1cccc([N+](=O)[O-])c1 | active: 20.6 µM |  |
| CCOC(=O)C1(C)CCCCN1C(=O)c1ccc(N(C)C)cc1 (configuration not stated) | inactive |  |
| CN(c1ccccc1)S(=O)(=O)c1ccccc1Br | inactive and inconclusive: 35.5 µM [inhibitor, single point] |  |
| Cc1cc(NC(=O)c2cccc(S(=O)(=O)N3CCCCCC3)c2)n(-c2ccccn2)n1 | inconclusive: 29.1 µM [inhibitor, single point] |  |
| Cn1c(=O)c2c(nc(CN3CCN(c4ccccc4F)CC3)n2Cc2ccc(F)cc2)n(C)c1=O | active: 10.3 µM |  |
| Cc1[nH]n(C(N)=S)c(=O)c1N=Nc1ccc(Cl)cc1Cl | inconclusive: 29.1 µM [inhibitor, single point] |  |
| Cc1ccc(Sc2ncccc2COC(=O)Nc2c(C)cccc2C)cc1 | inconclusive: 29.1 µM [inhibitor, single point] |  |
| COCCn1c(-c2cc(OC)c(OC)c(OC)c2)nc2oc3cc(OC)ccc3c(=O)c2c1=O | inconclusive: 20.6 µM [inhibitor, single point] |  |
| C[C@H](c1ccccc1)N1C[C@@H](COCc2ccccc2)Oc2cc(N3CC[C@@H](O)C3)ccc2S1(=O)=O | active: 20.6 µM |  |
| COCCCNCCOCCOc1ccc(Cl)cc1Br | inconclusive: 23.1 µM [inhibitor, single point] |  |
| CCCNC(=O)N1CCN(c2nc(C(C)C)c3c(c2C#N)CC(C)(C)OC3)CC1 | active: 29.1 µM |  |

| Compound | Potency | activity change, negative = growth inhibition |
| --- | --- | --- |
| Cc1ccc(-c2nnn(CC(=O)N(CC(=O)NC3CCCC3)c3ccccc3F)n2)o1 | inactive |  |
| C=C(C)Cn1c2ccc(NC(=O)NCc3ccc(F)cc3)cc2c(=O)n1C | inactive |  |
| CN(C)S(=O)(=O)c1cccc(NC(=O)c2ccc(S(=O)(=O)N3CCCCC3)cc2)c1 | inconclusive: 29.1 µM [inhibitor, single point] |  |
| CCC1Oc2ccc(C)cc2N(CC(=O)NCc2cccc(OC)c2)C1=O (configuration not stated) | inconclusive: 18.4 µM [inhibitor, single point] |  |
| CC1CCN(C(=O)c2cc3nc(-c4ccccc4)cc(-c4ccccc4)n3n2)CC1 | active: 16.4 µM |  |
| Brc1ccc(OCCOCCOc2cccc3cccnc23)cc1 | inconclusive: 25.9 µM [inhibitor, single point] |  |
| CCOc1ccc(N(Cc2ccccc2)C(=O)c2nc(SC)ncc2Cl)cc1 | active: 13 µM |  |
| O=c1c(S(=O)(=O)c2ccccc2)cn(Cc2ccccc2)c2cc(N3CCCC3)c(F)cc12 | inactive |  |
| c1cnc2ccc(-n3ccnc3)cc2c1 | inconclusive: 18.4 µM [inhibitor, single point] |  |
| COc1cccc(C(=O)c2cn(CC(=O)NCc3ccco3)c3nc(C)ccc3c2=O)c1 | inactive |  |
| C[C@@H]1CN([C@H](C)CO)C(=O)c2cc(-c3ccc(F)cc3)cnc2O[C@H]1CN(C)C(=O)c1ccc(F)cc1 | inconclusive: 29.1 µM [inhibitor, single point] |  |
| Cc1nn(C(=O)c2c(-c3ccccc3)noc2C)c(C)c1N=Nc1cc(C(F)(F)F)cc(C(F)(F)F)c1 | inactive |  |
| Cc1nc2cnc(N(C)C)nc2n(C)c1=O | inactive |  |
| O=C(COC(=O)c1cc2c(s1)CCC2)Nc1ccc(F)cc1 | inconclusive: 20.6 µM [inhibitor, single point] |  |
| COc1ccc(OC)c(NC(=O)c2cccc(N3C(=O)C4C5C=CC(C6CC56)C4C3=O)c2)c1 (configuration not stated) | active: 16.4 µM |  |
| Cc1ccc(Nc2nc(-c3ccc(O)cc3O)cs2)nc1 | inconclusive: 25.9 µM [inhibitor, single point] |  |
| Cc1ccc2nc(SCC(=O)N3CCC(C)CC3)nc(=O)n2c1 |  | inconclusive: -31.1% [inhibitor] |
| O=C(c1cc(-c2ccccc2)on1)N(Cc1cccnc1)C(c1ccccn1)c1nc2ccccc2[nH]1 (configuration not stated) | inconclusive: 29.1 µM [inhibitor, single point] |  |
| Cc1ccc(C(=O)N/N=C/c2cccnc2)cc1Cl | inactive |  |
| C=CCc1cc(C)ccc1OCC(O)CN1CCN(c2ccccc2)CC1 (configuration not stated) | inconclusive: 29.1 µM [inhibitor, single point] |  |
| CCCOc1ccc(C(=O)NCC2OCCc3ccccc32)cc1OC (configuration not stated) | inactive |  |
| Cc1ccc(CSCC(=O)Nc2ccc(F)cc2)cc1 | inactive |  |
| COc1ccc(-c2[nH]ncc2CN2C[C@@H]3CCC[C@H]2C3)c(F)c1 | inactive |  |
| CCOC(=O)CC1(C)c2nc(NC(C)=O)sc2Cc2sc(NC(C)=O)nc21 | inactive |  |

Reference: PubChem BioAssay AID686979 (National Center for Advancing Translational Sciences (NCATS), 2013)
